Out of some 420,000 compounds screened, about 64,000 (15%) were called active. Inconclusive means that the source gave no clear call. Such entries were picked first, then a sample of the others. The call rests on the fitted dose curve; in most records, active means well fitted inhibition curve with a large enough effect; inconclusive means small, poorly fitted or top-dose-only effect; inactive means flat fitted curve, though single readings scatter. Potencies of inconclusive entries are left out as doubtful fits.
test: qHTS for Inhibitors of human tyrosyl-DNA phosphodiesterase 1 (TDP1): qHTS in cells in absence of CPT; conditions: DT40 Tdp1-/- hTDP1 cells, no CPT, ATP luminescence, 48 h; activity change, negative = growth inhibition: at 46.2 µM (top of the series) unless noted; further: nearly all actives have a fitted effect of over 55% in size
Procedure, shortened: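 Growth kinetics read by CellTiter-Glo luminescence after ≥48 hr at 37 °C. Cells: DT40 Tdp1-/- stably carrying human TDP1, 400 per well, compound exposure in the absence of CPT (DMSO vehicle).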
On the % scale 0 is the no-effect control and ±100 the full control effect; potency means the concentration at half of the fitted maximal effect; tags describe the fitted curve by direction and shape.

SMILES	Potency	activity change, negative = growth inhibition
O=S(=O)(c1ccc(Br)s1)N1CCN(c2cccc(C(F)(F)F)c2)CC1	inconclusive [inhibitor, single point]	–
COc1ccc(C(C)(C)C)cc1S(=O)(=O)N1CCC(C(N)=O)CC1	–	inactive: -2.14%
O=C(O)c1ccccc1N1C(=O)C2C3CCC(C3)C2C1=O (configuration not stated)	–	inactive: -26.3%
CCOC(=O)c1nnc(-c2ccc(C)cc2)nc1Sc1ccccc1Cl	active: 16.4 µM	–
CCOC(=O)CSc1ncc(-c2ccc([N+](=O)[O-])cc2)[nH]1	–	inconclusive: -46.5% [inhibitor]
Cc1csc2nc(COC(=O)c3ccccc3NC(=O)c3cccc(Br)c3)cc(=O)n12	active: 8.2 µM	–
Cc1ccc(C2=NS(=O)(=O)N(C)C(C(=O)Nc3ccc4c(c3)OCO4)=C2)cc1	inconclusive [inhibitor, single point]	–
O=C(NCCc1ccc(Cl)cc1)c1c2c(nc3ccccc13)C(=O)N(C1CCCCC1)C2	active: 14.6 µM	–
CCCNC(=O)c1cc(C2CCCCN2C(=O)CCc2ccccc2)on1 (configuration not stated)	–	inactive: 1.07%
CC(=O)c1c(C)[nH]c(C(=O)Nc2ccc3c(c2)OCCO3)c1C	–	inactive: -10.7%
CC(C)n1nc(C(=O)Nc2nc3ccccc3[nH]2)c2ccccc2c1=O	active: 14.6 µM	–
O=C(CN1CCN(c2ccccc2)CC1)N/N=C/c1cccc(F)c1	–	inactive: -3.4%
COc1ccc(CCNC(=O)CCSc2nc(-c3ccco3)cc(C(F)(F)F)n2)cc1OC	active: 16.4 µM	–
CCN(CC)CCCNC(=S)N(Cc1cccnc1)Cc1cc2cc(C)ccc2[nH]c1=O	–	inactive: 4.58%
COc1ccc(OC)c(NC(=O)C2CCCN(S(=O)(=O)c3cccc4nonc34)C2)c1 (configuration not stated)	–	inactive: -23.5%
Clc1ccc(-c2nc3ccccn3c2CN2CCCCC2)cc1	inconclusive [inhibitor, single point]	–
O=C(CCCCCNc1nc(=S)[nH]c2ccccc12)NCCc1ccccc1	inconclusive [inhibitor, single point]	–
Cc1ccc(N2CCN(CCc3nc4cc(NS(C)(=O)=O)ccc4n3C)CC2)cc1	inconclusive [inhibitor, single point]	–
CN1CCN(CCCNC(=O)CCc2nnc3n(Cc4ccccc4Cl)c(=O)c4ccccc4n23)CC1	–	inactive: -0.296%
CN1CCN(C2=C(Cl)C(=O)N(Cc3ccccc3)C2=O)CC1	–	inactive: -17.5%
Nc1c(C(=O)NCc2ccco2)sc2nc3c(cc12)C(=O)CCC3	inconclusive [inhibitor, partial curve]	–
N#Cc1cccc(C(=O)C(=O)N2CCC(Cc3ccccc3)CC2)c1	inconclusive [inhibitor, single point]	–

Reference: PubChem BioAssay AID686978 (National Center for Advancing Translational Sciences (NCATS), 2013)
